Structures can show the parent of a compound that is named as a salt. Where two headings read alike, the source gives them in different places.
Tests used:
Assay in all cases: microbe, parasite or virus in culture
[1] = test system: HIV-1 K103N RT mutant; details: Human immunodeficiency virus 1, HeLa, read-out: K103N activity level, HeLa-CD4-LTR-β-gal cells, K103N virus
From the text: (§1) The HeLa cell assay described herein is a modified version of Kimpton J. and Emerman M., Detection of replication-competent and pseudotyped human immunodeficiency virus with a sensitive cell line on the basis of activation of an integrated β-galactosidase gene, J. Virol. 66:2232-2239 (1992), in which HIV-1 infection is detected by the activation of an HIV-LTR driven β-galactosidase reporter that is integrated into the genome of a CD4+ HeLa cell line. Quantitation of β-galactosidase is achieved by measuring the activation of a chemiluminescent substrate (Applied Biosystems). The concentration of each compound required to inhibit 50% (IC50) of the HIV-1 induced β-galactosidase signal, relative to untreated controls, is determined for each isogenic, recombinant virus.
(§2) HeLa-CD4-LTR-β-gal cells are propagated in DMEM containing 10% fetal bovine serum+0.2 mg/ml geneticin+0.1 mg/ml hygromycin B. Cells are split by standard trypsinization when confluency reaches 80% (roughly every 2 to 3 days).
(§3) DNA encoding the HIV-1 reverse transcriptase is subcloned from a M13 phage into a general shuttle vector, pBCSK+, as a −1.65 kbp EcoRI/HindIII ended DNA fragment. The HIV DNA insert of the resulting plasmid, is completely sequenced on both strands prior to use in site directed mutagenesis experiments. Specific amino acid replacements are made using Stratagene Quick Change reagents and mutagenic oligonucleotides. The mutations that are made include K103N, V106A, Y181C, and Y188L. Following mutagenesis, the entire mutant RT coding sequence is verified by sequencing both DNA strands.
(§4) K103N, V106A, Y181C, and Y188L mutant HIV-1 strains and wild type strains are isolated by a modified Recombinant Virus Assay (Kellam P. and Larder B., Recombinant virus assay: a rapid, phenotypic assay for assessment of drug susceptibility of human immunodeficiency virus type 1 isolates, Antimicrobial Agents and Chemotherapy, 38:23-30, 1994). Ten million MT4 T-cells (maintained in RPMI containing 10% fetal bovine serum, split 1:5 every 5 to 6 days) are co-transfected with EcoRI/HindIII digested mutant RT plasmid and Bst EII-digested HIV-1HXB2ΔRT DNA in the presence of DMRIE-C transfection reagent (Gibco) according to supplier's recommended protocol. Each mutant RT coding sequence is crossed into the RT-deleted HIV-1 viral DNA backbone by in vivo homologous recombination. Transfected cell cultures are expanded and monitored until syncitia formation and CPE are extensive. Virus is harvested by clear spin of the culture supernatants, filtration of the supernatants through a 0.45 micron membrane and frozen at −80° C. as primary stocks. Recombinant progeny virus is sequenced in the RT region to confirm the mutant genotype. Some virus stocks require further expansion by infection of MT4 cells, harvested as above and stored as frozen aliquots. All stocks are titered in HeLa MAGI cells for assay.
(§5) HIV-1 virus stocks are titered in the HeLa-CD4-LTR-β-gal assay system to establish the appropriate infecting dose. The endpoint for this assay is relative light units (RLUs), and titer is recorded as RLUs/ml. Virus stocks are diluted (serial 1:2) into DMEM containing 10% FBS plus 25 ug/ml DEAE-dextran and assayed as described in the “Experimental Protocol” section below without test compound.
(§6) • 1. Seed 96-well plate(s) (Costar #3904) with HeLa-CD4-LTR-β-gal @ 3×10^3 cells per well in 100 ul DMEM containing 10% FBS. Incubate @ 37° C., 5% CO2 overnight. Day 2 • 1. Thaw virus stock in a water bath (room temperature) and dilute into DMEM+10% FBS+25 ug/ml DEAE-dextran to an infectious dose of approximately 10 million RLU/ml. The dilution of virus will vary depending on the titer of the stock (see “Titering of virus stocks” above). • 2. Remove all of the media from every well with an 8 or 12-channel manifold aspirator. Work with one plate at a time to prevent drying of the HeLa-CD4-LTR-β-gal monolayer. Add 35 ul (approximately 350,000 total RLUs) of diluted virus to each well. […]

[2] = test system: HIV-1 V106A RT mutant
From the text: as §1, §2, §3, §4, §5, §6

[3] = test system: HIV-1 Y181C RT mutant
From the text: as §1, §2, §3, §4, §5, §6

[4] = Human immunodeficiency virus 1, HeLa, read-out: V106A activity level, HeLa-CD4-LTR-β-gal cells, V106A virus
[5] = Human immunodeficiency virus 1, HeLa, read-out: Y181C activity level, HeLa-CD4-LTR-β-gal cells, Y181C virus

## COc1ccc(C(=O)NCc2ccc(Cl)c(Oc3cc(Cl)cc(C#N)c3)c2)c(C)c1 [Example 2, N-({4-chloro-3-[(3-chloro-5-cyanophenyl)oxy]phenyl}methyl)-2-methyl-4-(methyloxy)benzamide]
[1]
  IC50: > 1000 nM
[2]; [4]
  IC50: > 1000 nM
[3]; [5]
  IC50: > 1000 nM

## COc1ccc2c(C(=O)NCc3ccc(Cl)c(Oc4cc(Cl)cc(C#N)c4)c3)c[nH]c2c1 [Example 3, N-({4-chloro-3-[(3-chloro-5-cyanophenyl)oxy]phenyl}methyl)-6-(methyloxy)-1H-indole-3-carboxamide]
[1]
  IC50: > 1000 nM
[2]; [4]
  IC50: > 1000 nM
[3]; [5]
  IC50: > 1000 nM

## N#Cc1cc(Cl)cc(Oc2cc(CNC(=O)c3ccc(S(N)(=O)=O)cc3Cl)ccc2Cl)c1 [Example 4, 4-(aminosulfonyl)-2-chloro-N-({4-chloro-3-[(3-chloro-5-cyanophenyl)oxy]phenyl}methyl)benzamide trifluoroacetate]
[1]
  IC50: 10 to 1000 nM
[2]; [4]
  IC50: > 1000 nM
[3]; [5]
  IC50: > 1000 nM

## N#Cc1cc(Cl)cc(Oc2cc(CNC(=O)c3ccc(Cl)c(S(N)(=O)=O)c3)ccc2Cl)c1 [Example 5, 3-(aminosulfonyl)-4-chloro-N-({4-chloro-3-[(3-chloro-5-cyanophenyl)oxy]phenyl}methyl)benzamide trifluoroacetate]
[1]
  IC50: > 1000 nM
[2]; [4]
  IC50: > 1000 nM
[3]; [5]
  IC50: > 1000 nM

## COc1ccc(C(=O)NCc2ccc(Cl)c(Oc3cc(Cl)cc(C#N)c3)c2)c(OC)c1 [Example 6, N-({4-chloro-3-[(3-chloro-5-cyanophenyl)oxy]phenyl}methyl)-2,4-bis(methyloxy)benzamide]
[1]
  IC50: > 1000 nM
[2]; [4]
  IC50: > 1000 nM
[3]; [5]
  IC50: > 1000 nM

## COc1ccc2cc(C(=O)NCc3ccc(Cl)c(Oc4cc(Cl)cc(C#N)c4)c3)[nH]c2c1 [Example 7, N-({4-chloro-3-[(3-chloro-5-cyanophenyl)oxy]phenyl}methyl)-6-(methyloxy)-1H-indole-2-carboxamide]
[1]
  IC50: > 1000 nM
[2]; [4]
  IC50: > 1000 nM
[3]; [5]
  IC50: > 1000 nM

## CS(=O)(=O)c1ccc(C(=O)NCc2ccc(Cl)c(Oc3cc(Cl)cc(C#N)c3)c2)c(Cl)c1 [Example 8, 2-chloro-N-({4-chloro-3-[(3-chloro-5-cyanophenyl)oxy]phenyl}methyl)-4-(methylsulfonyl)benzamide]
[1]
  IC50: > 1000 nM
[2]; [4]
  IC50: > 1000 nM
[3]; [5]
  IC50: > 1000 nM

## N#Cc1cc(Cl)cc(Oc2cc(CNC(=O)c3cc4cc([N+](=O)[O-])ccc4[nH]3)ccc2Cl)c1 [Example 9, N-({4-chloro-3-[(3-chloro-5-cyanophenyl)oxy]phenyl}methyl)-5-nitro-1H-indole-2-carboxamide]
[1]
  IC50: > 1000 nM
[2]; [4]
  IC50: > 1000 nM
[3]; [5]
  IC50: > 1000 nM

## COc1ccc2[nH]c(C(=O)NCc3ccc(Cl)c(Oc4cc(Cl)cc(C#N)c4)c3)cc2c1 [Example 10, N-({4-chloro-3-[(3-chloro-5-cyanophenyl)oxy]phenyl}methyl)-5-(methyloxy)-1H-indole-2-carboxamide]
[1]
  IC50: > 1000 nM
[2]; [4]
  IC50: > 1000 nM
[3]; [5]
  IC50: > 1000 nM

## COC(=O)c1ccc(C(=O)NCc2ccc(Cl)c(Oc3cc(Cl)cc(C#N)c3)c2)cc1 [Example 11, Methyl 4-{[({4-chloro-3-[(3-chloro-5-cyanophenyl)oxy]phenyl}methyl)amino]carbonyl}benzoate]
[1]
  IC50: > 1000 nM
[2]; [4]
  IC50: > 1000 nM
[3]; [5]
  IC50: > 1000 nM

## N#Cc1cc(Cl)cc(Oc2c(Cl)ccc(CNC(=O)c3ccc(S(N)(=O)=O)cc3Cl)c2F)c1 [Example 14, 4-(aminosulfonyl)-2-chloro-N-({4-chloro-3-[(3-chloro-5-cyanophenyl)oxy]-2-fluorophenyl}methyl)benzamide]
[1]
  IC50: 10 to 1000 nM
[2]; [4]
  IC50: 10 to 1000 nM
[3]; [5]
  IC50: 10 to 1000 nM

## COC(=O)c1ccc(C(=O)NCc2ccc(Cl)c(Oc3cc(Cl)cc(C#N)c3)c2F)cc1 [Example 15, Methyl 4-{[({4-chloro-3-[(3-chloro-5-cyanophenyl)oxy]-2-fluorophenyl}methyl)amino]carbonyl}benzoate]
[1]
  IC50: 10 to 1000 nM
[2]; [4]
  IC50: > 1000 nM
[3]; [5]
  IC50: > 1000 nM

## CS(=O)(=O)c1ccc(C(=O)NCc2ccc(Cl)c(Oc3cc(Cl)cc(C#N)c3)c2F)c(Cl)c1 [Example 16, 2-chloro-N-({4-chloro-3-[(3-chloro-5-cyanophenyl)oxy]-2-fluorophenyl}methyl)-4-(methylsulfonyl)benzamide]
[1]
  IC50: 10 to 1000 nM
[2]; [4]
  IC50: 10 to 1000 nM
[3]; [5]
  IC50: 10 to 1000 nM

## COc1ccc(C(=O)NCc2ccc(Cl)c(Oc3cc(Cl)cc(C#N)c3)c2F)c(C)c1 [Example 17, N-({4-chloro-3-[(3-chloro-5-cyanophenyl)oxy]-2-fluorophenyl}methyl)-2-methyl-4-(methyloxy)benzamide]
[1]
  IC50: 10 to 1000 nM
[2]; [4]
  IC50: 10 to 1000 nM
[3]; [5]
  IC50: 10 to 1000 nM

## COc1ccc2c(C(=O)NCc3ccc(Cl)c(Oc4cc(Cl)cc(C#N)c4)c3F)c[nH]c2c1 [Example 18, N-({4-chloro-3-[(3-chloro-5-cyanophenyl)oxy]-2-fluorophenyl}methyl)-6-(methyloxy)-1H-indole-3-carboxamide]
[1]
  IC50: > 1000 nM
[2]; [4]
  IC50: > 1000 nM
[3]; [5]
  IC50: > 1000 nM

## N#Cc1cc(Cl)cc(Oc2c(Cl)ccc(CNC(=O)c3cc4cc([N+](=O)[O-])ccc4[nH]3)c2F)c1 [Example 19, N-({4-chloro-3-[(3-chloro-5-cyanophenyl)oxy]-2-fluorophenyl}methyl)-5-nitro-1H-indole-2-carboxamide]
[1]
  IC50: 10 to 1000 nM
[2]; [4]
  IC50: 10 to 1000 nM
[3]; [5]
  IC50: 10 to 1000 nM

## COc1ccc2[nH]c(C(=O)NCc3ccc(Cl)c(Oc4cc(Cl)cc(C#N)c4)c3F)cc2c1 [Example 20, N-({4-chloro-3-[(3-chloro-5-cyanophenyl)oxy]-2-fluorophenyl}methyl)-5-(methyloxy)-1H-indole-2-carboxamide]
[1]
  IC50: 10 to 1000 nM
[2]; [4]
  IC50: 10 to 1000 nM
[3]; [5]
  IC50: 10 to 1000 nM

## COc1ccc2cc(C(=O)NCc3ccc(Cl)c(Oc4cc(Cl)cc(C#N)c4)c3F)[nH]c2c1 [Example 21, N-({4-chloro-3-[(3-chloro-5-cyanophenyl)oxy]-2-fluorophenyl}methyl)-6-(methyloxy)-1H-indole-2-carboxamide]
[1]
  IC50: 10 to 1000 nM
[2]; [4]
  IC50: 10 to 1000 nM
[3]; [5]
  IC50: 10 to 1000 nM

## N#Cc1cc(Cl)cc(Oc2c(Cl)ccc(CNC(=O)c3cc4cc(OC[C@H]5CNCCO5)ccc4[nH]3)c2F)c1 [Example 25, N-({4-chloro-3-[(3-chloro-5-cyanophenyl)oxy]-2-fluorophenyl}methyl)-5-{[2R)-2-morpholinylmethyl]oxy}-1H-indole-2-carboxamide hydrochloride]
[3]; read-out: Y181C activity level, HeLa-CD4-LTR-β-gal cells, Y181C virus, hydrochloride
  IC50: < 10 nM

## N#Cc1cc(Cl)cc(Oc2c(Cl)ccc(CNC(=O)c3ccc[nH]3)c2F)c1 [Example 58, N-({4-chloro-3-[(3-chloro-5-cyanophenyl)oxy]-2-fluorophenyl}methyl)-1H-pyrrole-2-carboxamide trifluoroacetate]
[2]; read-out: V106A activity level, HeLa-CD4-LTR-β-gal cells, V106A virus, trifluoroacetate
  IC50: < 10 nM

## N#Cc1cc(Cl)cc(Oc2c(Cl)ccc(CNC(=O)c3ncc[nH]3)c2F)c1 [Example 60, N-({4-chloro-3-[(3-chloro-5-cyanophenyl)oxy]-2-fluorophenyl}methyl)-1H-imidazole-2-carboxamide]
[2]; read-out: V106A activity level, HeLa-CD4-LTR-β-gal cells, V106A virus
  IC50: 10 to 1000 nM

Reference: patent US8304419B2, “Chemical compounds” (priority 2007, dated 2012)
